According to the supplement of paper PMC10928670:
MIC of N. gonorrhoeae strains collected 1971-2005, agar dilution (CLSI M07); ranges 0.03-64 mg/L (penicillin, azithromycin), 0.015-1 (cefixime, ceftriaxone), 0.5-256 (spectinomycin); higher = less susceptible. No active / inactive call per row; the paper counts cefixime and ceftriaxone above 0.25 and azithromycin above 1 mg/L as non-susceptible. The source says 'penicillin'; penicillin G is assumed. Isolates are numbered anew.

Assays:
Assay in all cases: Agar dilution by CLSI M07.
cefixime = compound: C=CC1=C(C(=O)O)N2C(=O)[C@@H](NC(=O)/C(=N\OCC(=O)O)c3csc(N)n3)[C@H]2SC1 [cefixime]
penicillin G = compound: CC1(C)S[C@@H]2[C@H](NC(=O)Cc3ccccc3)C(=O)N2[C@H]1C(=O)O [penicillin G]
azithromycin = compound: CC[C@H]1OC(=O)[C@H](C)[C@@H](O[C@H]2C[C@@](C)(OC)[C@@H](O)[C@H](C)O2)[C@H](C)[C@@H](O[C@@H]2O[C@H](C)C[C@H](N(C)C)[C@H]2O)[C@](C)(O)C[C@@H](C)CN(C)[C@H](C)[C@@H](O)[C@]1(C)O [azithromycin]
spectinomycin = compound: CN[C@@H]1[C@H](O)[C@H](NC)[C@H]2O[C@@]3(O)C(=O)C[C@@H](C)O[C@H]3O[C@@H]2[C@H]1O [spectinomycin]
ceftriaxone = compound: CO/N=C(\C(=O)N[C@@H]1C(=O)N2C(C(=O)O)=C(CSc3nc(=O)c(O)nn3C)CS[C@H]12)c1csc(N)n1 [ceftriaxone]

Row | Test System | MIC (cefixime) [µg/mL] | MIC (penicillin G) [µg/mL] | MIC (azithromycin) [µg/mL] | MIC (spectinomycin) [µg/mL] | MIC (ceftriaxone) [µg/mL]
1 | Neisseria gonorrhoeae isolate 197 (GyrA: Wild type, ParC: Wild type, mtrR: Wild type, penA: Type I NonMosaic, ponA: Wild type, porB: Wild type) | ≤ 0.015 | 0.125 | 0.125 | 16 | ≤ 0.015
2 | Neisseria gonorrhoeae isolate 198 (GyrA: Wild type, ParC: Wild type, mtrR: -35A Del, A39T, penA: Type IV NonMosaic, A517G, G543S, ponA: Wild type, porB: A121D) | ≤ 0.015 | 0.125 | ≤ 0.03 | 16 | ≤ 0.015
3 | Neisseria gonorrhoeae isolate 199 (GyrA: Wild type, ParC: Wild type, mtrR: G45D, penA: Type XXII NonMosaic, A517G, ponA: Wild type, porB: G120D, A121D) | ≤ 0.015 | 0.5 | 0.25 | 16 | ≤ 0.015
4 | Neisseria gonorrhoeae isolate 200 (GyrA: Wild type, ParC: Wild type, mtrR: G45D, penA: Type XXII NonMosaic, A517G, ponA: Wild type, porB: Wild type) | ≤ 0.015 | 0.25 | ≤ 0.03 | 8 | ≤ 0.015
5 | Neisseria gonorrhoeae isolate 201 (GyrA: Wild type, ParC: Wild type, mtrR: -35A Del, penA: Type IV NonMosaic, A517G, G543S, ponA: L421P, porB: G120D) | 0.03 | 2 | 0.25 | 16 | 0.03
6 | Neisseria gonorrhoeae isolate 202 (GyrA: Wild type, ParC: Wild type, mtrR: Wild type, penA: WT NonMosaic, ponA: Wild type, porB: Wild type) | ≤ 0.015 | ≤ 0.03 | 0.125 | 16 | ≤ 0.015
7 | Neisseria gonorrhoeae isolate 203 (GyrA: Wild type, ParC: Wild type, mtrR: -35A Del, A39T, penA: Type IV NonMosaic, A517G, G543S, ponA: Wild type, porB: G120K, A121D) | 0.03 | 2 | 0.5 | 16 | 0.03
8 | Neisseria gonorrhoeae isolate 204 (GyrA: S91F, D95G, ParC: Wild type, mtrR: -35A Del, penA: Type V Nonmosaic, A517G, G543S, ponA: L421P, porB: Wild type) | ≤ 0.015 | 1 | 0.25 | 16 | ≤ 0.015
9 | Neisseria gonorrhoeae isolate 205 (GyrA: D95G, ParC: Wild type, mtrR: -35A Del, A39T, penA: Type V Nonmosaic, A517G, G543S, ponA: L421P, porB: G120K, A121D) | 0.03 | 4 | 0.25 | 32 | 0.06
10 | Neisseria gonorrhoeae isolate 206 (GyrA: Wild type, ParC: Wild type, mtrR: Wild type, penA: Type II NonMosaic, A517G, ponA: L421P, porB: porB1a) | ≤ 0.015 | 0.25 | 0.125 | 16 | ≤ 0.015
11 | Neisseria gonorrhoeae isolate 207 (GyrA: Wild type, ParC: Wild type, mtrR: -35A Del, G45D, penA: Type XIX NonMosaic, A517G, ponA: L421P, porB: G120D, A121N) | ≤ 0.015 | 0.125 | ≤ 0.03 | 32 | ≤ 0.015
12 | Neisseria gonorrhoeae isolate 208 (GyrA: Wild type, ParC: Wild type, mtrR: Wild type, penA: WT NonMosaic, ponA: Wild type, porB: Wild type) | ≤ 0.015 | ≤ 0.03 | 0.06 | 32 | ≤ 0.015
13 | Neisseria gonorrhoeae isolate 209 (GyrA: S91F, D95G, ParC: Wild type, mtrR: -35A Del, penA: Type V Nonmosaic, A517G, G543S, ponA: L421P, porB: G120K, A121D) | 0.06 | 4 | 0.25 | 16 | 0.06
14 | Neisseria gonorrhoeae isolate 210 (GyrA: Wild type, ParC: Wild type, mtrR: -35A Del, G45D, penA: Type II NonMosaic, A517G, ponA: Wild type, porB: G120D) | 0.06 | 4 | 0.5 | 32 | 0.06
15 | Neisseria gonorrhoeae isolate 211 (GyrA: Wild type, ParC: Wild type, mtrR: -35A Del, A39T, penA: Type V Nonmosaic, A517G, G543S, ponA: L421P, porB: G120K, A121D) | 0.06 | 16 | 0.5 | 32 | 0.06
16 | Neisseria gonorrhoeae isolate 212 (GyrA: Wild type, ParC: Wild type, mtrR: -35A Del, penA: Type IV NonMosaic, A517G, G543S, ponA: L421P, porB: G120K, A121D) | 0.03 | > 64 | 0.5 | 16 | 0.06
17 | Neisseria gonorrhoeae isolate 213 (GyrA: Wild type, ParC: Wild type, mtrR: A39T, penA: WT NonMosaic, ponA: Wild type, porB: porB1a) | ≤ 0.015 | 0.06 | 0.25 | 128 | ≤ 0.015
18 | Neisseria gonorrhoeae isolate 214 (GyrA: Wild type, ParC: Wild type, mtrR: -35A Del, A39T, penA: Type V Nonmosaic, A517G, G543S, ponA: L421P, porB: A121D) | 0.03 | 2 | 0.25 | 16 | 0.03
19 | Neisseria gonorrhoeae isolate 215 (GyrA: Wild type, ParC: Wild type, mtrR: -35A Del, G45D, penA: Type II NonMosaic, A517G, ponA: L421P, porB: G120K, A121D) | ≤ 0.015 | 2 | 0.25 | 16 | 0.03
20 | Neisseria gonorrhoeae isolate 216 (GyrA: Wild type, ParC: Wild type, mtrR: -35A Del, penA: Type XXII NonMosaic, A517G, ponA: L421P, porB: G120K, A121D) | 0.03 | 2 | 1 | 16 | 0.03
21 | Neisseria gonorrhoeae isolate 217 (GyrA: S91F, ParC: Wild type, mtrR: -35A Del, A39T, penA: Type V NonMosaic, A517G, G543S, ponA: L421P, porB: G120K, A121D) | 0.03 | 4 | 0.5 | 32 | 0.06
22 | Neisseria gonorrhoeae isolate 218 (GyrA: D95N, ParC: Wild type, mtrR: -35A Del, penA: Type II NonMosaic, A517G, ponA: L421P, porB: porB1a) | ≤ 0.015 | 0.25 | 0.125 | 32 | ≤ 0.015
23 | Neisseria gonorrhoeae isolate 219 (GyrA: Wild type, ParC: Wild type, mtrR: -35A Del, penA: Type XXII NonMosaic, A517G, ponA: L421P, porB: G120K, A121D) | ≤ 0.015 | 2 | 0.5 | 16 | 0.03
24 | Neisseria gonorrhoeae isolate 220 (GyrA: Wild type, ParC: Wild type, mtrR: G45D, penA: Type I NonMosaic, ponA: L421P, porB: G120N, A121D) | ≤ 0.015 | 0.5 | 0.25 | 32 | ≤ 0.015
25 | Neisseria gonorrhoeae isolate 221 (GyrA: Wild type, ParC: Wild type, mtrR: Wild type, penA: WT NonMosaic, ponA: Wild type, porB: G120D, A121D) | ≤ 0.015 | ≤ 0.03 | ≤ 0.03 | ≤ 0.5 | ≤ 0.015
